Results published in PubChem BioAssay AID485344 (National Center for Advancing Translational Sciences (NCATS), 2010).
In all, about 340,000 compounds went through this assay and about 6,900 (2%) were called active. No stated cut-off is given here; in the data, active means inhibition above about 30%; inactive means below that, where a call was filed. The entries are a selection whose mix differs from that of the whole data set. Entries without a call were filed so in the source.
Further: 0% is about no effect.

What follows are compounds tested against D(2) dopamine receptor (Homo sapiens) (UniProt P14416) (assay: HTS Assay for Allosteric Antagonists of the Human D2 Dopamine Receptor: Primary Screen for Antagonists). Conditions: HEK293 TREx D2 cells, calcium flux, dopamine EC80; at 10 µM; stronger effect = higher value.
UniProt P14416, sequence (P14416 whole entry, looked up): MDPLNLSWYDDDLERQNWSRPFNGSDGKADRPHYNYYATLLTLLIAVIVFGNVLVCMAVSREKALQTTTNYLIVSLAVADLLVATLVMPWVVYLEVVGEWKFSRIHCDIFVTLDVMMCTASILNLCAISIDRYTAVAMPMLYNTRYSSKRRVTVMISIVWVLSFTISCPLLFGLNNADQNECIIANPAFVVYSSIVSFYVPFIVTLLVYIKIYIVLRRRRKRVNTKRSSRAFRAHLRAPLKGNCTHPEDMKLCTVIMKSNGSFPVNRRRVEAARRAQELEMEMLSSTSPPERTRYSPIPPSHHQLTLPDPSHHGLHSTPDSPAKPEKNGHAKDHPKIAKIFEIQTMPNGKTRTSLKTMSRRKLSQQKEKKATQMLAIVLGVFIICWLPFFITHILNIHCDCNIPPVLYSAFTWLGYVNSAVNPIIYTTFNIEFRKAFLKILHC
Summary of the method: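 In this primary screen, negative modulation is detected by tracking calcium flux after an EC80 dopamine challenge in inducible HEK293 T-REx D2 cells preexposed to test compound for 180 s.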
CSCCC(NS(=O)(=O)c1ccc2c(c1)oc(=O)n2C)C(=O)NCc1ccc(Cl)cc1 (configuration not stated) was tested, and the inhibition was -2.68%.
In the case of Cc1ccc(C(=O)Nc2cc(-c3cn4cccnc4n3)ccc2C)cc1C, the inhibition is reported as 9.48%.
O=C(Nc1cc(-c2cccc(Cl)c2)nn1-c1ccccc1)c1ccccc1F was tested, and the inhibition was -23%.
For CCc1ccccc1S(=O)(=O)Cc1ccc(C(=O)NCCc2ccc(Cl)cc2)o1, the inhibition was 15.2%.
CCCS(=O)(=O)N1CCC(C(=O)NCCN2CCC(Cc3ccccc3)CC2)CC1 was tested, and the inhibition was active: 33.9%.
Work on CCS(=O)(=O)c1ncc(N(Cc2ccccc2)Cc2ccco2)c(C(=O)Nc2ccccc2C)n1 yielded an inhibition of -5.75%.
With Cc1ccc(-n2nnnc2SCc2ccc(C(=O)O)cc2)cc1C the inhibition was active: 30.3%.
Work on O=C(NCc1cccc(Cl)c1)c1cnc(N2CCOCC2)c2ccccc12 yielded an inhibition of 3.57%.
CCc1ccc(CNC(=O)Cn2nc(C)c3nn(-c4ccc(Cl)cc4)c(C)c3c2=O)cc1 showed an inhibition of -16.8%.
Compound COCCNC(=O)c1ccc2c(c1)ncn2-c1cc(C)ccc1OC has an inhibition of -2.29%.
Compound CCOc1ccc(NS(=O)(=O)c2c(C)nc3sc(CC)nn3c2=O)cc1 has an inhibition of 3.73%.
Cn1cccc1-c1cc2n(n1)CCC(=O)N2CCCC(=O)NCc1cccc(Cl)c1 showed an inhibition of 21.1%.
For CCCc1nnc(SCc2cc(=O)c3c(C)cc(C)cc3[nH]2)n1C, the inhibition was -1.26%.
In the case of CCc1nnc(NC(=O)CSc2nccn2Cc2ccc(Cl)cc2)s1, the inhibition is reported as 2.94%.
For O=C(Nc1ccc(F)cc1F)C1CCN(C(=O)c2cnn(-c3ccccc3)c2-n2cccc2)CC1, the inhibition was 0.472%.
O=C(NCC(c1ccc2c(c1)OCO2)N1CCN(c2ccccc2)CC1)c1ccc(F)c(F)c1 (configuration not stated) showed an inhibition of 19.8%.
Cc1ccc(OCCCn2c(-c3ccc(Cl)cc3)nc3ccccc3c2=O)cc1C showed an inhibition of -10.1%.
In the case of C=CCC(CC=C)(CNC(=O)C(=O)Nc1ccc(Br)cc1)c1ccc(OC)c(OC)c1, the inhibition is reported as -4.97%.
COc1ccc(NC(=O)c2ccc(NC(=O)CCS(=O)(=O)c3cccs3)cc2)cc1Cl showed an inhibition of 15.9%.
For Cc1ccc(-n2nnnc2SCC(=O)NCCc2ccccc2)cc1C, the inhibition was 9.6%.
In the case of Cc1cc(OCc2cc(C(=O)NC3CCC3)no2)cc(C)c1Cl, the inhibition is reported as active: 43%.
For CCc1ccc(NC(=O)c2cnn3ccccc23)cc1, the inhibition was active: 41.8%.
CCC(C)NC(=O)Cn1c(=O)n(-c2ccc(Cl)cc2)c(=O)c2c3c(sc21)CCCC3 (configuration not stated) was tested, and the inhibition was -4.29%.
Work on CCOc1ccc(N(CC(=O)OC)S(=O)(=O)c2ccc3c(c2)n(C)c(=O)c(=O)n3C)cc1 yielded an inhibition of 24.6%.
Work on Cc1ccc(C)c(N2CCN(C(=O)c3c(C)oc4nc(C)nc(N5CCOCC5)c34)CC2)c1 yielded an inhibition of 0.413%.
With O=C(NCCCN1CCCCC1)c1ccc2c(c1)ncn2C1CCCC1 the inhibition was active: 30.1%.
With CCCCC(=O)OC1=CN(Cc2ccccc2)S(=O)(=O)c2ccccc21 the inhibition was 17.9%.
O=C(O)c1ccc(Cl)c(NC(=S)NC(=O)c2cccc(COc3ccccc3)c2)c1 was tested, and the inhibition was active: 36%.
Work on COc1ccc2c(c1)c(CC(=O)Nc1c(C)cccc1C)c(C)n2C(=O)c1ccc(Cl)cc1 yielded an inhibition of 13.7%.
For COc1ccc(OCC(=O)NCc2ccc3c(c2)CCN3C(=O)c2cccc(C)c2)cc1, the inhibition was -2.09%.
In the case of CC(=O)N1CCCC1c1nc2ccccc2n1Cc1cccc(C)c1 (configuration not stated), the inhibition is reported as 8.58%.
For COc1cccc(NC(=O)CN(C)C(=O)CSc2nc(C)cc(C)n2)c1, the inhibition was active: 41%.
In the case of CC(C)c1ccc(C2NC(=O)c3c(sc4c3CCN(C)C4)N2)cc1 (configuration not stated), the inhibition is reported as 8.75%.
For CCc1cccc(NC(=O)CC(c2ccc(OC)cc2)N2Cc3ccccc3C2=O)c1 (configuration not stated), the inhibition was 2.46%.
In the case of CCOc1ccccc1NC(=O)Cn1c(=O)n(-c2ccc(C)cc2)c(=O)c2c1cnn2C, the inhibition is reported as -4.78%.
Cc1cc(C)cc(NC(=O)CCn2cnc3ccccc3c2=O)c1 showed an inhibition of -21.7%.
With COc1ccc(CNC(=O)Cn2cccc2C(=O)c2ccccc2C)cc1 the inhibition was -1.04%.
Compound Cc1cccc(N2CCN(c3nc4ccccc4c4nnc(C)n34)CC2)c1C has an inhibition of 13.1%.
CCN(CC)C(=O)c1sc2c(c1C)c(=O)n(-c1ccc(OC)cc1OC)c(=O)n2CC(=O)Nc1ccccc1 gave an inhibition of 1.48%.
In the case of COC(=O)c1ccc(NC(=O)CC2C(=O)N(c3ccccc3)C(=O)N2Cc2cccs2)cc1 (configuration not stated), the inhibition is reported as -8.6%.
With Cc1cc(C)cc(-n2ccnc2SCC(=O)Nc2ccccc2F)c1 the inhibition was -2.45%.
Cc1cccc(NC(=O)c2c(NC(=O)c3ccccc3)sc3c2CCC3)c1 gave an inhibition of -2.75%.
Work on CSc1ncc(C(=O)NCc2cccc(C)c2)c(-c2ccccc2)n1 yielded an inhibition of -6.71%.
Compound COc1ccccc1/C=C/C(=O)Nc1nc2n(n1)C(c1ccc(F)cc1)C=C(c1ccccc1)N2 (configuration not stated) has an inhibition of 11.3%.
Cc1ccc(OCCn2c(C3CC(=O)N(Cc4ccc(F)cc4)C3)nc3ccccc32)c(C)c1 (configuration not stated) showed an inhibition of 4.7%.
C=CCc1ccccc1OCCSc1nc(-c2ccccc2F)nc2cc(=O)[nH]n12 gave an inhibition of -4.96%.
O=S(=O)(NCC(c1ccccc1)N1CCc2ccccc21)c1ccc(Cl)cc1 (configuration not stated) was tested, and the inhibition was 6.24%.
Compound Cc1nn(CCC(=O)Nc2cccc(C#N)c2)c(C)c1S(=O)(=O)N1CCCCC1 has an inhibition of 14.3%.
For Cc1cccc(C)c1NC(=O)Cn1cc(C(=O)C2CC2)c2ccccc21, the inhibition was 7.05%.
In the case of COc1cccc(C(=O)Nc2nnc(S(=O)(=O)N3CCCc4ccccc43)s2)c1, the inhibition is reported as -6.89%.
Compound CCCCN(CC)CCCNC(=O)c1cn(C)c(=O)c2c1c1ccccc1n2C has an inhibition of 4.79%.
With CCS(=O)(=O)NCCc1csc2nc(-c3ccc(OC)cc3)nn12 the inhibition was 25.1%.
COc1ccc(OC)c(S(=O)(=O)NCCS(=O)(=O)N2CCN(c3ccccc3F)CC2)c1 showed an inhibition of 5.52%.
For CCc1cnc2c(c1SCc1cc(OC)cc(OC)c1)c(=O)n(C)c(=O)n2C, the inhibition was 4.82%.
In the case of Cc1ccc(C)c(CN2C(=O)c3ccccc3S(=O)c3ccc(C(=O)N4CCCCC4)cc32)c1 (configuration not stated), the inhibition is reported as -2.18%.
With CCOC(=O)c1ccc(NC(=O)CC(C)n2nc(C)cc2C)cc1 (configuration not stated) the inhibition was 10%.
Work on O=C(CN1C(=O)COc2ccc(S(=O)(=O)N3CCCCCC3)cc21)N1CCN(c2ccc(Cl)cc2)CC1 yielded an inhibition of 4.95%.
Compound COc1cc(NC(=O)Cc2noc3ccccc23)cc(OC)c1OC has an inhibition of -3.36%.
Work on COc1ccc(-c2ccc(=O)n(CC(=O)Nc3cc(OC)ccc3OC)n2)cc1 yielded an inhibition of 5%.
In the case of Cc1cccc(-n2ncc3c(NNC(=O)c4ccccc4Cl)ncnc32)c1, the inhibition is reported as 3.62%.
Compound CCOC(=O)c1cccc(NC(=O)Nc2c(C)n(C)n(-c3ccccc3)c2=O)c1 has an inhibition of -0.918%.
With O=c1[nH]c(C2CCCN(S(=O)(=O)c3ccccc3)C2)nc2c1nnn2Cc1ccccc1Br (configuration not stated) the inhibition was -8.18%.
For COc1ccc(CNC(=O)c2cc(-c3ccc(Br)s3)nc3ccccc23)cc1, the inhibition was 12.4%.
Cc1ccc(C)c(Nc2nn3c(=O)c4ccc(C(=O)NCc5ccccc5)cc4nc3s2)c1 showed an inhibition of -14.2%.
O=C(Nc1ccc2c(c1)OCO2)c1cc(-c2cccc(Cl)c2)on1 showed an inhibition of 3.99%.
In the case of Cc1ccc(C)c(N2CCN(C(=O)Cn3cnc4sc(C)c(S(=O)(=O)N5CCN(c6ncccn6)CC5)c4c3=O)CC2)c1, the inhibition is reported as -3.57%.
Clc1ccc(-c2ccc(CNCC3CCCO3)o2)cc1 (configuration not stated) was tested, and the inhibition was active: 35.2%.
CCOC(=O)Cn1c(C2CC(=O)N(c3ccc(C)cc3)C2)nc2ccccc21 (configuration not stated) gave an inhibition of -2.72%.
In the case of CSc1cccc(NC(=S)NCCCN2CCN(c3ccc(F)cc3)CC2)c1, the inhibition is reported as active: 43%.
Compound CCC(=O)N1c2ccccc2CC1C(=O)NCCc1ccc(SC)cc1 (configuration not stated) has an inhibition of 2.66%.
Work on COCCn1c(-c2ccccc2)c(C)n2c3c(=O)n(C)c(=O)n(C)c3nc12 yielded an inhibition of 4.55%.
In the case of Cc1ccccc1OCCn1cc(C(=O)C2CCCCC2)c2ccccc21, the inhibition is reported as 9.9%.
Compound COc1ccccc1-c1cc(C(=O)N2CCN(c3ccccc3)CC2)no1 has an inhibition of -3.8%.
With O=[N+]([O-])c1ncccc1OCc1ccccc1Br the inhibition was active: 34.3%.
OC(COc1ccccc1F)CN1CCC(Cc2ccccc2)CC1 (configuration not stated) was tested, and the inhibition was active: 64.8%.
Compound COc1ccc(NC(=O)C(c2ccccc2)N2Cc3ccccc3C2=O)cc1 (configuration not stated) has an inhibition of -5.68%.
For Cc1cc(C)c2c(=O)cc(C(=O)Nc3ccc(C)c(Cl)c3)oc2c1, the inhibition was -25.2%.
For CCc1ccc(C2=CC(c3cccc(C)c3)n3c(nc4ccccc43)N2)cc1 (configuration not stated), the inhibition was 10.5%.
With Cc1cccc(N(CC(=O)NCc2ccccc2)S(C)(=O)=O)c1C the inhibition was -7.52%.
With Cc1nnc(N2CCC(C(=O)NCCc3ccccc3)CC2)c2nn(-c3ccccc3)c(C)c12 the inhibition was 8.32%.
O=C(Nc1ccc(OCc2cc(=O)n3ccsc3n2)cc1)c1ccc(F)cc1 gave an inhibition of -4.24%.
COc1ccc(CNC(=O)CSCc2nc(-c3ccccc3F)oc2C)cc1 gave an inhibition of -19.4%.
In the case of CCc1ccc(-c2nc(CN3CCC(C(=O)NCCc4ccc(C)cc4)CC3)c(C)o2)cc1, the inhibition is reported as -12.8%.
Work on O=C(CSc1nc2ccccc2n1Cc1ccc(F)cc1)N1CCN(c2ccc(F)cc2)CC1 yielded an inhibition of 4.34%.
For Cc1csc2nc(COC(=O)c3ccc(F)cc3)cc(=O)n12, the inhibition was 1.08%.
For CCOC(=O)c1c(C)oc2nc(C)nc(Nc3cc(C)cc(C)c3)c12, the inhibition was 10.1%.
In the case of CC(=O)N1CCCc2cc(S(=O)(=O)N(CCN(C)C)Cc3ccccc3)ccc21, the inhibition is reported as -13.1%.
Work on CCc1ccc2oc(C(=O)NCC(c3ccc(Cl)cc3)N3CCOCC3)c(C)c2c1 (configuration not stated) yielded an inhibition of 4.71%.
COc1ccc(-c2cc(OC(=O)c3ccccc3C)c3c(C)oc(C)c3c(=O)c2)cc1 was tested, and the inhibition was -2.19%.
CCc1cccc(C)c1NC(=O)c1cc(S(=O)(=O)N(C)Cc2ccccc2)ccc1F showed an inhibition of 16%.
With CC1CC(C)CN(C(=O)COC(=O)c2ccc([N+](=O)[O-])o2)C1 (configuration not stated) the inhibition was active: 31.3%.
In the case of CCC(=O)Nc1ccccc1-c1nc2ccccc2n(Cc2cccc(Br)c2)c1=O, the inhibition is reported as 22.4%.
Cn1c(=O)c2sccc2n2c(CCCC(=O)Nc3ccc(Cl)cc3)nnc12 gave an inhibition of -19.8%.
With O=C(Nc1ccccc1Cl)c1ccc(F)c(S(=O)(=O)NCc2ccc(Cl)c(Cl)c2)c1 the inhibition was -5.12%.
In the case of CCOC(=O)c1sc(N2C(=O)c3oc4cc(C)c(C)cc4c(=O)c3C2c2ccc(C)cc2)nc1C (configuration not stated), the inhibition is reported as 1.16%.
Compound COc1ccc(CN2CCCN(CC(=O)Nc3cc(C)ccc3C)S2(=O)=O)cc1 has an inhibition of 1.82%.
For CCN(CCC(=O)Nc1cc([N+](=O)[O-])ccc1OC)Cc1ccccc1, the inhibition was active: 78.9%.
